This note sets out measurements from PubChem BioAssay AID743255 (National Center for Advancing Translational Sciences (NCATS), 2014).

The structures appear in SMILES notation. In all, about 390,000 compounds went through this assay and about 910 (0.23%) were called active. Another 5% or so got no clear call; they are omitted. Calls come from the whole dose curve; as a rule, active = well fitted inhibition curve with a large enough effect; inconclusive = small, poorly fitted or top-dose-only effect; inactive = no such curve, though single readings can be large or run the other way. Only a part is listed here, and it is no random draw. Where a structure was tested more than once in an assay, its records may differ in their call.
% is set by controls: 0 for no effect and ±100 for the full control effect; potency is the fitted concentration of half-maximal effect.

Sequence of UniProt O94782 (O94782 whole entry, looked up): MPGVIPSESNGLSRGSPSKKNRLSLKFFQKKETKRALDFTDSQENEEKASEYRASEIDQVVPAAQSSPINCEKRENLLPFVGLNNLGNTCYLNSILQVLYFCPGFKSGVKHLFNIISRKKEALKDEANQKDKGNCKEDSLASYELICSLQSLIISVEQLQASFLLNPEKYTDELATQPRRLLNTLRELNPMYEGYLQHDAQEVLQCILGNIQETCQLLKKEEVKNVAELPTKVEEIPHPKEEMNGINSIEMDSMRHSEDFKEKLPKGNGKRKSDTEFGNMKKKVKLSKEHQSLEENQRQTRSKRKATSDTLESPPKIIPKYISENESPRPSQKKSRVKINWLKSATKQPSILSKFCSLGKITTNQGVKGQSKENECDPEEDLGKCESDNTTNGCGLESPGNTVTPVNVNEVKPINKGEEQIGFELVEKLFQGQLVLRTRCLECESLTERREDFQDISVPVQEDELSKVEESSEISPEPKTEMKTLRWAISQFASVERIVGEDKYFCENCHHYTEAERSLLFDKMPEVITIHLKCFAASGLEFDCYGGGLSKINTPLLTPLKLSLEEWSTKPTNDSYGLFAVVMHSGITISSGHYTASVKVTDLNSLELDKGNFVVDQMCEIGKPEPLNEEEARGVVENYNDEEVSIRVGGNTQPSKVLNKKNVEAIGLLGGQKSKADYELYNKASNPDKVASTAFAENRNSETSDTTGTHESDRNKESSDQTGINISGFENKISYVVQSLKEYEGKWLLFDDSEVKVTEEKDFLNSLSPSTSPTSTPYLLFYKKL

The experiment has as its target Ubiquitin carboxyl-terminal hydrolase 1 (Homo sapiens) (UniProt O94782). In words: Inhibitors of USP1/UAF1: Primary Screen. Note: nearly all actives have a fitted effect of over 60% in size. As to conditions: recombinant USP1/UAF1, Ub-Rhodamine cleavage fluorescence; activity change, negative = inhibition: at 57.1 µM (top of the series). In outline:
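In this screen, compounds sit with the deubiquitinase complex (1nM) for 15 min at room temperature before Ub-Rho is added at 150nM final. Fluorescence rise is then followed for 6 reads every 60 seconds.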
Regarding `CCOC(=O)c1ccccc1NC(=O)Cn1c(=O)n(Cc2ccccc2)c(=O)c2c(C)c(C)sc21`, the “activity change, negative = inhibition” value is inactive: -21.8%.

With `CNC(=O)c1sc(N2N=C3/C(=C/c4ccccc4)CCCC3C2c2ccccc2)nc1C` (configuration not stated), the “activity change, negative = inhibition” value is inactive: -19.7%. As to `O=c1c2ccccc2nc(-c2cccc(Cl)c2)n1O`, the “activity change, negative = inhibition” value was inactive: 13.1%. On the same count and under the same terms, the figure for `CCOc1ccc(CCNC(=O)c2ccc3nc(CC)c(CC)nc3c2)cc1` is inactive: -3.05%. As for `Cc1ccc(S(=O)(=O)/N=C2/NC(=O)/C(=C/c3cc([N+](=O)[O-])ccc3O)S2)cc1`, the Potency was active: 28.2 µM. `COc1cc(NC(=O)Cn2c(C)cc3ccccc3c2=O)cc(OC)c1OC`: the “activity change, negative = inhibition” value was inactive: -7.37%. Still for that read-out and setting: the same measure for `CCCN1C(=O)/C(=C/C=C2\N(CC)c3ccccc3C2(C)C)SC1=S`: inactive: 75.5%. Same read-out and setting: the same measure for `C[C@@H]1CN([C@H](C)CO)C(=O)c2cc(Br)cnc2O[C@H]1CN(C)C(=O)Cc1ccccc1`: inactive: -16.1%.

Take `CC1CC(=O)c2c(cc3c(-c4c(O)cc(O)c5c(O)c6c(cc45)OC(C)CC6=O)c(O)cc(O)c3c2O)O1` (configuration not stated): the Potency was active: 31.6 µM. In the case of `O=C(Nc1ccccc1)c1ccc(NCCc2ccccc2)c([N+](=O)[O-])c1`, the “activity change, negative = inhibition” value was inactive: 77.9%.

On to `O=C(Nc1ccc2c(c1)OCCO2)c1coc2ccccc2c1=O`, for which the “activity change, negative = inhibition” value is inactive: 82.7%. Still for that read-out and setting: the figure for `CCN1C(=O)[C@@H]2[C@@H](c3ccc(-c4ccc(Cl)c(Cl)c4)c(OC)c3)N3CCCC[C@@]3(C(=O)OC)[C@@H]2C1=O` is inactive: -15.5%. Same read-out and setting: the figure for `O=C(Nc1ccccc1)C1=C[C@@H](c2ccc(C(F)(F)F)cc2)C[C@@H](OCCCCO)O1` is inactive: -17.3%; for `CC(C)(C)OC(=O)C[C@@H]1C/C=C\C[C@H](CC(=O)N(CCO)Cc2ccccc2)C(=O)N[C@@H](Cc2ccccc2)COC1=O` it is inactive: -28%; for `C[C@@H]1CN([C@H](C)CO)C(=O)CCCn2nncc2CO[C@@H]1CN(C)S(=O)(=O)c1ccc(-n2cccn2)cc1` it is inactive: -19.7%.

With `CC1(C)C2CC[C@]3(C)C(CC=C4[C@@H]5C[C@@](C)(CO)CC[C@]5(C(=O)O)CC[C@]43C)[C@@]2(C)CC[C@@H]1O` (some centres not stated), the “activity change, negative = inhibition” value was inactive: -25.7%.

Consider `OCC[C@@H]1C[C@@H](O)[C@H](O)[C@@]2(CCCCO2)O1`, for which the “activity change, negative = inhibition” value was inactive: -8.91%. As for `O=C(Nc1ccccc1)/C(=C/c1ccc(F)cc1)NC(=O)c1ccco1`, the “activity change, negative = inhibition” value was inactive: -18.7%.

As for `Cc1cc2oc(C(=O)N(Cc3ccc(N(C)C)cc3)CC3CCCO3)c(C)c2cc1C` (configuration not stated), the “activity change, negative = inhibition” value is inactive: -20.5%. Same read-out and setting: the same measure for `CC(C)(C)OC(=O)C[C@H]1C/C=C\C[C@H](CC(=O)N[C@H](CO)Cc2ccccc2)C(=O)N[C@H](C(C)(C)C)COC1=O`: inactive: 10.1%. The same measure, in the same setting: the figure for `COC(=O)c1ccc(NC(=O)c2nn(C)c3c2COc2ccccc2-3)cc1` is inactive: 121%. As for `O=C(O)c1cc(O)c2c(c1)[C@@H]([C@H]1c3cc(C(=O)O)cc(O)c3C(=O)c3c(O[C@@H]4O[C@H](CO)[C@@H](O)[C@H](O)[C@H]4O)cccc31)c1cccc(OC3O[C@H](CO)[C@@H](O)[C@H](O)[C@H]3O)c1C2=O` (some centres not stated), the Potency was active: 5.62 µM. As to `Cc1ccc(NC(=O)C2CCN(S(=O)(=O)c3c(C)noc3C)CC2)cc1C`, the “activity change, negative = inhibition” value was inactive: -17.9%. On the same count and under the same terms, the figure for `CC(C)C[C@H](NC(=O)c1[nH]cnc1C(=O)N[C@@H](C)c1ccccc1)C(=O)OC(C)(C)C` is inactive: -19%; for `CC(C)OC(=O)N(C)C[C@H]1OCc2cnnn2CCCC(=O)N([C@@H](C)CO)C[C@H]1C` it is inactive: -28.2%; for `CN1CCC2(CC1)C1CN(C)CC=C1C(C#N)=C(N)C2(C#N)C#N` (configuration not stated) it is inactive: -18.7%. With `CN(C(=O)CCNC(=O)Cn1cnc2ccccc2c1=O)c1ccccc1F`, the “activity change, negative = inhibition” value was inactive: -1.59%. As to `Cc1ccccc1CS(=O)(=O)Cc1ccc(C(=O)NCCc2ccccc2)o1`, the “activity change, negative = inhibition” value was inactive: -11.9%. The same measure, in the same setting: the same measure for `C[C@@H]1COC(=O)[C@@H](Cc2ccc(F)cc2)C/C=C\C[C@@H](CC(=O)NCCO)C(=O)N1`: inactive: -18.3%.

Take `CCN(CC)CCCC(C)n1c2nc(=O)[nH]c(=O)c-2nc2cc(Cl)ccc21` (configuration not stated): the Potency is active: 25.1 µM.

For `COC(=O)[C@@H]1Cc2c([nH]c3ccccc23)C2CCC(=O)N21` (some centres not stated), the “activity change, negative = inhibition” value was inactive: -9.37%.

In the case of `C[C@@H](C(=O)NCCc1c[nH]c2ccccc12)[C@@H]1C[C@@]1(C)[C@@H](NC(=O)OCc1ccccc1)c1ccccc1`, the “activity change, negative = inhibition” value was inactive: -16.1%. Consider `C=CCn1c(C)c(/C=C/c2cc[n+](C)cc2)c2ccccc21`, for which the Potency was active: 35.5 µM.

For `O=C1NC[C@@H](c2ccccc2)OC(=O)[C@H](Cc2ccc(F)cc2)C/C=C\C[C@@H]1CC(=O)N(CCO)Cc1ccccc1`, the “activity change, negative = inhibition” value is inactive: -7.07%. Still for that read-out and setting: the same measure for `C=C(C)C(=O)Nc1cccc(C2=NOC3(C2)C[C@@H](C(N)=O)N(C(=O)c2ccc(OC)cc2)C3)c1` (some centres not stated): inactive: 66.9%. On the same count and under the same terms, the same measure for `C[C@H]1CN([C@@H](C)CO)C(=O)CCCn2nncc2CO[C@@H]1CN(C)S(=O)(=O)c1ccc(-n2cccn2)cc1`: inactive: -8.17%. Still for that read-out and setting: the same measure for `COc1cccc(S(=O)(=O)N(C)C[C@@H]2OCc3cnnn3CCCC(=O)N([C@H](C)CO)C[C@H]2C)c1`: inactive: 80.7%; for `CCn1c2ccccc2c2nnc(N3CCN(c4cc(C)ccc4C)CC3)nc21`: inactive: 33.8%. Consider `C[C@H]1CN([C@@H](C)CO)C(=O)CCCn2nncc2CO[C@H]1CN(C)C(=O)c1cc(-c2ccccc2)on1`, for which the “activity change, negative = inhibition” value was inactive: -20.5%. The same measure, in the same setting: the figure for `O=C(c1ccc2c(c1)N(Cc1ccccc1)C(=O)c1ccccc1S2(=O)=O)N1CCCC1` is inactive: 28.9%; for `Cc1cccc(N2CCN(C(=O)c3nn(C)c4c3CS(=O)(=O)c3ccccc3-4)CC2)c1C` it is inactive: 0.12%. Same read-out and setting: the same measure for `C=CCC[C@H](Cc1ccc(F)cc1)C(=O)OC[C@@H](C)NC(=O)[C@H](CC=C)CC(=O)N(CCO)Cc1ccccc1`: inactive: -33.4%.
